# Among all 46,000 compounds or so, about 60 (0.1%) were called active. Inconclusive results (about 3%) are left out. Calls follow the shape of the dose curve; as a rule, active = well fitted inhibition curve with a large enough effect; inconclusive = small, poorly fitted or top-dose-only effect; inactive = no such curve, though single readings can be large or run the other way. This is one part of the list.
# Test: Primary qHTS assay for Inhibitors of ovarian cancer metastasis using an organotypic tumor microenvironment (TME) model. Also: nearly all actives have a fitted effect of over 65% in size.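 As to activity change, negative = inhibition: plate controls were DMSO wells for no effect and tomatine positive control wells for full effect.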
# Details: SKOV3ip1-GFP adhesion/invasion on 3D omental model, fluorescence; series mostly up to 45.8 µM; activity change, negative = inhibition: at the top concentration
# Procedure, shortened: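 A 3D layer of primary human omental fibroblasts, mesothelial cells, fibronectin and collagen I, grown 48 hr, received SKOV3ip1-GFP cells in serum-free medium plus compounds at 0.36-46 umol/L. After 2 hr RT and 16 hr 37 C, fixed adherent GFP cells were counted; normalized to DMSO and tomatine.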
Structure (SMILES),outcome,"activity change, negative = inhibition"
COc1ccc(NC(=O)CSc2nc(-c3cccs3)cc(C(F)(F)F)n2)cc1Cl,inactive,
CCc1ccc(NCc2cc3ccc(OC)cc3n(CC(=O)Nc3ccccc3C)c2=O)cc1,,inactive: -2.91%
CC(=O)c1cccc(NC(=O)CSc2nc3c(c(=O)[nH]2)CCC3)c1,,inactive: 2.87%
Cc1ccc(CNC(=O)C(NS(=O)(=O)c2cccs2)C(C)C)cc1 (stereo unspecified),inactive,
COc1ccc(CCC(=O)NCc2ccc3c(c2)CCN3C(=O)c2ccc(Cl)cc2)cc1,,inactive: -20.8%
COC(=O)c1ccc(Cl)cc1NC(=O)Nc1nnc(N(C)C2CCCCC2)s1,,inactive: -3.72%
CCc1ccccc1S(=O)(=O)Cc1ccc(C(=O)NCc2ccc(Cl)cc2)o1,,inactive: 0.314%
Cc1ccc(CSC2=Nc3ccccc3C3=NC(CCC(=O)NC4CCCCC4)C(=O)N23)cc1 (stereo unspecified),inactive,
CCc1ccc(C(=O)CC2(O)C(=O)N(CCc3ccccc3)c3ccc(Br)cc32)cc1 (stereo unspecified),,inactive: 6.81%
CCc1c(C)sc2c1CCN(Cc1cccc(OC)c1)C2c1ccccc1 (stereo unspecified),,inactive: 7.73%
CCC1=Nc2cc(C(=O)NCCc3ccc(OC)c(OC)c3)ccc2Sc2ccccc21,,inactive: 73.4%
CCCCN(CCCC)CCNC(=O)Cn1nc(CC)n2c(cc3sccc32)c1=O,,inactive: -13%
CCc1nc2ccccc2n2c(-c3ccc(C)cc3)c3c(=O)n(C)c(=O)n(C)c3c12,,inactive: 1.56%
O=C(Cn1c(=O)n(-c2ccc(F)cc2)c(=O)c2sc3ccccc3c21)NC1CCCC1,,inactive: 16.7%
COc1ccc(-n2nc3ccc(NC(=O)c4c(OC)cccc4OC)cc3n2)cc1,,inactive: 4.7%
CCc1ccc2oc(C(=O)Nc3ccccc3OC)cc(=O)c2c1,,inactive: -0.347%
Cc1csc2nc(COC(=O)CNC(=O)c3ccc(F)cc3)cc(=O)n12,,inactive: -0.329%
COc1ccc(CSc2nc3ccncc3n2CC(=O)Nc2cc(C)cc(C)c2)cc1,,inactive: 0.82%
CCOC(=O)c1c(C)[nH]c(C)c1S(=O)(=O)NCC(=O)Nc1ccc(C)cc1C,inactive,
NC(=O)C1CCN(C(=O)c2ccc3c(c2)N(Cc2cccc(Cl)c2)C(=O)c2ccccc2S3=O)CC1 (stereo unspecified),inactive,
Fc1ccc(Nc2nc(SCc3ccccc3Cl)nc3ccccc23)cc1,,inactive: -4.41%
Cc1cc(C)cc(NC(=O)C2CCCN(S(=O)(=O)c3cccc4nsnc34)C2)c1 (stereo unspecified),,inactive: 28.7%
Cc1cccc(N2CCN(C(c3ccccc3)c3nnc(-c4ccccc4F)o3)CC2)c1C (stereo unspecified),,inactive: 1.01%

Structure (SMILES),outcome,"activity change, negative = inhibition"
CCOc1ccccc1NC(=O)C1CCC(CNS(=O)(=O)c2ccc3c(c2)CCCC(=O)N3)CC1 (stereo unspecified),inactive,
COc1ccc(CC(=O)NCCS(=O)(=O)N2CCN(c3ccccc3F)CC2)cc1OC,inactive,
Cc1ccc(C(=O)Nc2ccccc2C(=O)OCc2cc(=O)n3nc(C(C)C)sc3n2)cc1,,inactive: 3.83%
Cc1ccc(C)c(NC(=O)CN(C)S(=O)(=O)c2cccc3cccnc23)c1,,inactive: 10.2%
Cc1ccc(Cl)cc1N1CCN(CCCNC(=O)Cn2ncc3c([nH]c4ccccc43)c2=O)CC1,,inactive: 1.81%
CCOc1ccc(N(C(=O)c2ccc(Cl)cc2)S(=O)(=O)c2ccc3c(c2)n(C)c(=O)n3C)cc1,,inactive: -0.319%
Cc1cccc(NC(=O)Cn2c(=O)n(Cc3ccccc3)c(=O)c3sc4ccccc4c32)c1,inactive,
Fc1ccc(-c2noc3ncnc(Nc4ccc(F)cc4F)c23)cc1,,inactive: 2.24%
O=C(CC1N=C2c3ccccc3N=C(SCc3ccc(F)cc3)N2C1=O)NC1CCCCC1 (stereo unspecified),inactive,
CCOc1ccc(CCNC(=O)c2cccc(Nc3nc4ccccc4nc3-n3nc(C)cc3C)c2)cc1OCC,,inactive: 4.6%
COc1ccc(S(=O)(=O)c2c(Nc3c(C)cccc3C)sc(C(=O)c3ccc(F)cc3)c2N)cc1,,inactive: 22.6%
COC(=O)c1ccccc1NC(=O)C1=CC(c2ccc3c(c2)OCO3)=NS(=O)(=O)N1C,,inactive: 5.97%
Cc1ccc(CNc2nc3ccc(Cl)cc3n3cnnc23)cc1,,inactive: -7.16%
CCc1cccc(C)c1Nc1c(-c2ccc(SC)cc2)nc2sccn12,,inactive: -0.732%
Cc1ccc(C)c(NC(=O)CSc2nc(-c3ccccc3)c(C#N)c(=O)[nH]2)c1,,inactive: 2.98%
CC(=O)c1cccc(NC(=O)Nc2c(C)n(C)n(-c3ccccc3)c2=O)c1,,inactive: 3.72%
COc1cccc(CNc2nc3ccccc3c3nc(-c4cccc(C)c4)nn23)c1,inactive,
COc1ccc(-c2cc(-c3ccccc3)nc(SCC(=O)Nc3ccccc3C)c2C#N)cc1,,inactive: 3.86%
Cc1cccc(-c2nc(CCNC(=O)COc3ccccc3)cs2)c1,,inactive: -3.9%
COc1ccc(CCNC(=O)Cn2nnc(-c3ccc(Cl)cc3)n2)cc1OC,,inactive: -3.7%
Cc1ccc(CN(Cc2ccco2)C(=O)c2ccc(Cl)cc2Cl)cc1,inactive,
O=C(CSc1ccc(-c2cccs2)nn1)Nc1ccccc1,,inactive: 18.7%
Cc1cccc(NC(=O)CSc2ncc(-c3ccc(Br)cc3)[nH]2)c1,,inactive: -5.33%

# Source: PubChem BioAssay AID1963576 (National Center for Advancing Translational Sciences (NCATS), 2024)
